The shares of active, inactive and inconclusive entries below differ from those in the screen. For some of these results: No potency is given beside an inconclusive call; the fits are too rough. The source made the active and inactive calls. Unless noted, calls come from the whole dose curve; as a rule, active = well fitted curve in the direction sought with a large enough effect; inconclusive = small, poorly fitted or top-dose-only effect, or another doubt; inactive = no such curve, though single readings can be large; an effect the other way counts as inactive or inconclusive.
Tests used:
[1] = Cell Viability - Jurkat (AID 426;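 active = dose-dependent loss of cell ATP signal giving a full or clear fitted curve, ranked by lower potency value; inconclusive = weak partial curve or response only at the top dose; inactive = no loss of viability signal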; note: potency is the fitted concentration of half-maximal effect); conditions: qHTS
Summary of the method: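 Jurkat (Clone E6-1) cells, 5000/well in complete medium, exposed to compounds for 40 hr at 37C; intracellular ATP measured by CellTiter-Glo luminescence after 20 min at room temperature. AC50 from Hill fits.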

[2] = Cell Viability - Hek293 (AID 427;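 active = compounds whose dose-response curve shows a full or clear partial loss of cell viability, called from curve shape rather than a numeric limit; inconclusive = weak partial curves or an effect only at the top dose; inactive = no dose-dependent loss of viability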;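 note: potency is the fitted concentration of half-maximal effect; cells exposed to compound for 40 hours at 37 °C before reading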); conditions: qHTS
Summary of the method: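 AC50 values derive from Hill-modelled concentration-response of ATP-based luminescence, normalized between DMSO-only and 100 uM tamoxifen controls. Cells were exposed in complete culture medium for 40 hr at 37 °C before detection.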

[3] = Cell Viability - HepG2 (AID 433; calls by dose curve;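 note: potency is the fitted concentration of half-maximal effect; potency for ATP loss meaning cytotoxicity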); conditions: qHTS
Summary of the method: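 Cytotoxicity read as ATP loss (CellTiter-Glo luminescence) after 40 hr compound exposure of HepG2, 1500 cells/well, 37 °C. AC50 by Hill equation; 0% set by DMSO, 100% inhibition by 100 uM tamoxifen.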

[4] = target: Mitogen-activated protein kinase 10 (Mus musculus) (UniProt Q61831); assay: JNK3 AlphaScreen Assay (AID 530; active = well fitted curve in either direction with a large enough effect, not every such curve was filed as active; inconclusive = small, poorly fitted or top-dose-only effect, or another doubt;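 note: kinase came from lysate of stimulated human HepG2 cells; signal reports phosphorylation of biotinylated GST-cJun 1-79 at Ser73 with 10 µM ATP; potency is the fitted concentration of half-maximal effect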); conditions: JNK3 lysate, c-Jun phosphorylation; activity change, negative = inhibition: at 57.1 µM (top of the series)
Summary of the method: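 Pre-activated (IL-1β/TNFα) JNK3 in HepG2 lysates phosphorylates biotin-GST-cJun(1-79), 10 uM ATP; anti-phospho-cJun(Ser73) AlphaScreen read at room temperature, pH 7.6 Tris buffer. Compounds pre-incubated 15 min as titrations.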

[5] = Cell Viability - N2a (AID 540); conditions: N2a mouse neuroblastoma cell viability; activity change, negative = cytotoxicity: at 92.2 µM (top of the series);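 note: plate controls were DMSO alone for no effect and tamoxifen control for full effect; nearly all actives have a fitted effect of over 45% in size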
Summary of the method: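 Mouse neuroblastoma N2a cells, 1500/well, exposed to compounds 40 h at 37 °C in complete medium. Viability measured as cellular ATP by CellTiter-Glo luminescence; AC50 from Hill fits of concentration-response.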

[6] = Cell Viability - NIH 3T3 (AID 541); conditions: NIH 3T3 cell viability, qHTS; activity change, negative = cytotoxicity: at 92.2 µM (top of the series);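 note: plate controls were DMSO alone for no effect and tamoxifen positive control for full effect; nearly all actives have a fitted effect of over 25% in size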
Summary of the method: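 Mouse NIH 3T3 fibroblasts, 1000 cells/well, rested 5 hr at 37 °C, then exposed to compound for 40 hr at 37 °C in complete medium. Viability read as intracellular ATP by CellTiter-Glo luminescence; AC50 from Hill-equation fits of concentration-response data.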

[7] = Cell Viability - H-4-II-E (AID 543); conditions: H-4-II-E rat hepatoma viability; series mostly up to 92.2 µM; note: potency is the fitted concentration of half-maximal effect; nearly all actives have a fitted effect of over 35% in size
Summary of the method: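 Rat hepatoma H-4-II-E cells, 1500 per well, treated 40 h at 37 °C in complete medium. Cellular ATP read by CellTiter-Glo luminescence; AC50 from Hill fits of concentration-response.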

[8] = Cell Viability - Renal Proximal Tubule (AID 545); conditions: renal proximal tubule cells viability, primary cells of rat origin; activity change, negative = cytotoxicity: at 91.7 µM (top of the series);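 note: 0% = DMSO only and -100% = 100 µM tamoxifen; nearly all actives have a fitted effect of over 40% in size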
Summary of the method: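 Viability taken as intracellular ATP (CellTiter-Glo luminescence) after 40 hr, 37 °C compound treatment of primary proximal tubule cells from rat kidney, 1000 cells/well; Hill-equation fits of qHTS concentration-response data gave AC50.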

[9] = Cell Viability - Mesenchymal (AID 546); conditions: mesenchymal cells viability, qHTS; activity change, negative = cytotoxicity: at 91.7 µM (top of the series);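 note: cells exposed to compound for 40 hours before reading; 0% = DMSO only and -100% = 100 µM tamoxifen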
Summary of the method: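 Human kidney mesenchymal cells from normal renal glomeruli, 1000 cells/well, rested 5 hr at 37 °C, then treated 40 hr at 37 °C in complete medium. Cellular ATP read by CellTiter-Glo luminescence; AC50 from Hill-equation fits.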

[10] = Cell Viability - LYMP2-001 (AID 921); conditions: LYMP2-001 lymphoblastoid cell viability; series mostly up to 92.2 µM; note: potency is the fitted concentration of half-maximal effect; nearly all actives have a fitted effect of over 70% in size
Summary of the method: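 Cellular ATP loss read by luciferase luminescence after 24 h compound exposure at 37 C in complete medium. LYMP2-001 lymphoblastoid cells, 2500/well; qHTS concentration-response data fitted with Hill equation for AC50.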

[11] = MultiTox-Fluor Cytotoxicity Assay - LYMP1-001 - Dead Cells (AID 946); conditions: LYMP1-001 lymphoblastoid cells, dead-cell protease fluorescence; cytotoxicity (dead cells): at 92.2 µM (top of the series);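 note: 0% = DMSO and 100% = tetraoctylammonium bromide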
Summary of the method: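 In this qHTS, 15 uM tetraoctylammonium bromide defined 100% and DMSO defined basal activity. Lymphoblastoid cells (LYMP1-001, 2500 per well) received compound for 16 hr at 37 C before a fluorogenic dead-cell substrate readout at 485/520 nm.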

[12] = Cell Viability - LYMP1-002 - Assay at 16 hr (AID 948); conditions: LYMP1-002 lymphoblastoid cell viability; series mostly up to 92.2 µM; note: potency is the fitted concentration of half-maximal effect
Summary of the method: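 ATP luminescence (CellTiter-Glo) was measured after 16 hr compound exposure at 37 C of 2500 lymphoblastoid LYMP1-002 cells per well. Concentration-response curves were fitted with the Hill equation to give AC50.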

[13] = MultiTox-Fluor Cytotoxicity Assay - LYMP1-002 - Dead Cells (AID 960); conditions: LYMP1-002 lymphoblastoid cells, dead-cell protease fluorescence; cytotoxicity (dead cells): at 46.1 µM (top of the series); note: potency is the fitted concentration of half-maximal effect; nearly all actives have a fitted effect of over 60% in size
Summary of the method: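 Human lymphoblastoid LYMP1-002 cells, 2500/well, treated 16 h at 37 C; dead-cell protease cleavage of bis-AAF-R110 read by fluorescence (485/520); normalized to DMSO and 15 uM tetraoctylammonium bromide; AC50 from Hill fit.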

[14] = MultiTox-Fluor Cytotoxicity Assay - LYMP1-003 - Dead Cells (AID 961); conditions: LYMP1-003 lymphoblastoid cells, dead-cell protease fluorescence; series mostly up to 92.2 µM;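 note: potency is the fitted concentration of half-maximal effect; cells exposed to compound for 16 h at 37 °C; nearly all actives have a fitted effect of over 70% in size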
Summary of the method: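 Acute toxicity is scored as increased dead-cell protease activity in human lymphoblastoid LYMP1-003 cells after 16 h compound exposure in complete culture medium. Activity is normalized to DMSO basal and 15 uM tetraoctylammonium bromide as full response.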

[15] = Cell Viability - LYMP1-003 - Assay at 40 hr (AID 964); conditions: LYMP1-003 lymphoblastoid viability; series mostly up to 92.2 µM; note: potency is the fitted concentration of half-maximal effect; nearly all actives have a fitted effect of over 60% in size
Summary of the method: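 LYMP1-003 human lymphoblastoid cells, 2500/well, preincubated 5 h at 37 C, then treated with compound for 40 h at 37 C. Intracellular ATP read by CellTiter-Glo luminescence after 30 min at room temperature; AC50 from Hill-equation fits.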

[16] = Cell Viability - LYMP2-003 (AID 965); conditions: LYMP2-003 lymphoblastoid cell viability; series mostly up to 92.2 µM;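 note: cells exposed to compounds for 24 h before reading; 0% = DMSO only and full effect = 92 µM tetraoctylammonium bromide; nearly all actives have a fitted effect of over 50% in size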
Summary of the method: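 CellTiter-Glo luminescence quantified ATP loss after 24 h compound treatment of LYMP2-003 lymphoblastoid cells at 37 C. Titration series were fitted with the standard Hill equation to give AC50.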

[17] = Cell Viability - LYMP2-005 (AID 967); conditions: LYMP2-005 lymphoblastoid cell viability; series mostly up to 92.2 µM; note: potency is the fitted concentration of half-maximal effect
Summary of the method: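 LYMP2-005 human lymphoblastoid cells (2500/well) were treated with compounds for 24 h at 37 C. Intracellular ATP was then measured by CellTiter-Glo luminescence after 30 min at room temperature. AC50 values came from Hill-equation fits of qHTS concentration-response data.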

[18] = Cell Viability - LYMP2-009 (AID 968); conditions: LYMP2-009 lymphoblastoid cell viability; series mostly up to 92.2 µM; note: potency is the fitted concentration of half-maximal effect; nearly all actives have a fitted effect of over 55% in size
[19] = Cell Viability - LYMP2-011 (AID 969); conditions: LYMP2-011 lymphoblastoid cells viability; series mostly up to 92.2 µM; note: potency is the fitted concentration of half-maximal effect; nearly all actives have a fitted effect of over 60% in size
Summary of the method: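 2500 cells/well in complete medium, compound-treated 24 h at 37 C. Viability read as intracellular ATP by CellTiter-Glo luminescence after 30 min at room temperature. AC50 from Hill fits of qHTS concentration-response data.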

[20] = Cell Viability - LYMP2-013 (AID 970); conditions: LYMP2-013 lymphoblastoid cells viability; activity change, negative = cytotoxic: at 92.2 µM (top of the series); note: potency is the fitted concentration of half-maximal effect; nearly all actives have a fitted effect of over 55% in size
Summary of the method: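 Human lymphoblastoid LYMP2-013 cells, 2500/well, treated 24 h at 37 C in complete medium; viability as intracellular ATP by CellTiter-Glo luminescence after 30 min. AC50 from Hill fits of qHTS concentration-response.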

[21] = Cell Viability - LYMP2-015 (AID 971); conditions: LYMP2-015 lymphoblastoid cell viability; series mostly up to 92.2 µM; note: potency is the fitted concentration of half-maximal effect; nearly all actives have a fitted effect of over 55% in size
Summary of the method: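 LYMP2-015 human lymphoblastoid cells (2500/well) in complete medium, compound-treated 24 h at 37 C; viability read as cellular ATP by CellTiter-Glo luminescence after 30 min at room temperature. AC50 from Hill-equation fits of qHTS concentration-response data.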

[22] = Cell Viability - LYMP2-017 (AID 972); conditions: LYMP2-017 lymphoblastoid cell viability; series mostly up to 92.2 µM; note: potency is the fitted concentration of half-maximal effect; nearly all actives have a fitted effect of over 55% in size
Summary of the method: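 LYMP2-017 human lymphoblastoid cells (2500/well) settled 5 hr at 37 C, then exposed to compound 24 hr at 37 C in complete medium. Viability taken as intracellular ATP by CellTiter-Glo luminescence after 30 min at RT; AC50 from Hill fits.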

[23] = Cell Viability - LYMP2-021 (AID 974); conditions: LYMP2-021 lymphoblastoid cells viability; series mostly up to 92.2 µM
Summary of the method: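 Human lymphoblastoid LYMP2-021 cells, 2500/well in complete medium, treated 24 hours at 37 C. Intracellular ATP by CellTiter-Glo luminescence (30 min, RT); AC50 from Hill fits of concentration-response.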

[24] = Cell Viability - LYMP2-023 (AID 975); conditions: LYMP2-023 lymphoblastoid cell viability; series mostly up to 92.2 µM
Summary of the method: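 LYMP2-023 human lymphoblastoid cells, 2500/well, preincubated 5 hr at 37 C, then compound-treated 24 hr at 37 C in complete medium. CellTiter-Glo luminescence (ATP) after 30 min at room temperature; AC50 from Hill-equation fits; tetraoctylammonium bromide positive control.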

[25] = Cell Viability - LYMP2-025 (AID 976); conditions: LYMP2-025 lymphoblastoid cell viability; activity change, negative = cytotoxicity: at 92.2 µM (top of the series); note: potency is the fitted concentration of half-maximal effect
Summary of the method: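 Human lymphoblastoid LYMP2-025 cells, 2500/well, exposed 24 h at 37 C in complete medium in 1536-well qHTS. Viability as cellular ATP by CellTiter-Glo luminescence; AC50 from Hill fits of concentration-response data.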
Tags give direction and shape of the fitted curve.

Cc1cc(-c2ccc(N=Nc3cc(S(=O)(=O)O)c4ccccc4c3N)c(C)c2)ccc1N=Nc1cc(S(=O)(=O)O)c2ccccc2c1N
Potency [1]: inconclusive [partial curve]
Potency [2]: inconclusive [partial curve]
Potency [3]: inconclusive [partial curve]
Potency [4]: inconclusive [inhibitor, partial curve]
activity change, negative = cytotoxicity [5]: inconclusive: -41.1%
activity change, negative = cytotoxicity [6]: inconclusive: -64.4%
Potency [7]: inconclusive [falling, partial curve]
activity change, negative = cytotoxicity [8]: inconclusive: -45%
activity change, negative = cytotoxicity [9]: inconclusive: -34.6%
Potency [10]: inconclusive [cytotoxic, partial curve, poor fit]
Potency [11]: inactive
Potency [12]: inconclusive [cytotoxic, partial curve]
Potency [13]: inconclusive [falling, partial curve, poor fit]
Potency [14]: inconclusive [falling, partial curve]
Potency [15]: inconclusive [cytotoxic, partial curve]
Potency [16]: inactive
Potency [17]: inconclusive [cytotoxic, partial curve, poor fit]
Potency [18]: inconclusive [cytotoxic, partial curve]
Potency [19]: inconclusive [cytotoxic, partial curve]
Potency [20]: inconclusive [cytotoxic, partial curve]
Potency [21]: inconclusive [cytotoxic, partial curve, poor fit]
Potency [22]: inconclusive [cytotoxic, full curve, poor fit]
Potency [23]: inconclusive [cytotoxic, partial curve]
Potency [24]: inconclusive [cytotoxic, partial curve]
Potency [25]: inconclusive [cytotoxic, partial curve]
